The record followed here is publication PMC2646141.

These are yes or no findings as the source states them, for the method shown. For some assays here: Binding seen in cells or lysates may run through a third protein. Some entries that bind do so weakly or less than the wild type. For some assays here: Sequences can lack the tags named with a protein.

Holding throughout (conditions): remark: other sources report otherwise
Assay [1] deals with wild type APOBEC3G (A3G) bait (human), Q9HC16. Nature of the assay: two-hybrid; yeast Y190; wild type A3G in the bait plasmid pGBKT7, wild type or mutant A3G in the prey plasmid pHB18; beta-galactosidase activity (chlorophenol red-beta-D-galactopyranoside), OD540, normalised to Tsg101 bait/Vps28 prey set at 4.0.
The target in assay [2] is HA-tagged wild type A3G (human), Q9HC16. Nature of the assay: cross-linking + co-IP; 293T cells co-transfected with A3G-myc and A3G-HA; lysate treated with BM(PEO)3, quenched with DTT, immunoprecipitated with 3F10 anti-HA and protein A-agarose, with or without later RNase A; blot with anti-myc.
Assay [3] shares this target. Nature of the assay: co-IP; 293T cells co-transfected with pA3G-HA and a second A3G plasmid; cleared lysate (0.5% Triton X-100, 287 mM NaCl, pH 7.2); 3F10 anti-HA antibody and protein G- or A-agarose, 2 h at 4°C; aliquot without RNase A; immunoblot. In Figure 3A RNase A treatment substantially inhibited ….
Assay [4] has as its target untagged wild type APOBEC3G (A3G) (human), Q9HC16. The assay can be described thus: cross-linking; cleared lysate of transfected 293T cells treated with BM(PEO)3 (cysteine-reactive, 18 Å linker), 20°C, 1 h, quenched with DTT; SDS-PAGE and immunoblot for A3G; ~80 kD species; no RNase A, or RNase A after the crosslinking.

B1: wild type APOBEC3G (A3G) prey, Q9HC16 1-384 (protein)
chain: MKPHFRNTVERMYRDTFSYNFYNRPILSRRNTVWLCYEVKTKGPSRPPLDAKIFRGQVYSELKYHPEMRFFHWFSKWRKLHRDQEYEVTWYISWSPCTKCTRDMATFLAEDPKVTLTIFVARLYYFWDPDYQEALRSLCQKRDGPRATMKIMNYDEFQHCWSKFVYSQRELFEPWNNLPKYYILLHIMLGEILRHSMDPPTFTFNFNNEPWVRGRHETYLCYEVERMHNDTWVLLNQRRGFLCNQAPHKHGFLEGRHAELCFLDVIPFWKLDLDQDYRVTCFTSWSPCFSCAQEMAKFISKNKHVSLCIFTARIYDDQGRCQEGLRTLAEAGAKISIMTYSEFKHCWDTFVDHQGCPFQPWDGLDEHSQDLSGRLRAILQNQEN
As to B1, the binding result in assay [1] is listed as “binds”.

B2: myc-tagged A3G, Q9HC16 1-384 (protein)
chain: MKPHFRNTVERMYRDTFSYNFYNRPILSRRNTVWLCYEVKTKGPSRPPLDAKIFRGQVYSELKYHPEMRFFHWFSKWRKLHRDQEYEVTWYISWSPCTKCTRDMATFLAEDPKVTLTIFVARLYYFWDPDYQEALRSLCQKRDGPRATMKIMNYDEFQHCWSKFVYSQRELFEPWNNLPKYYILLHIMLGEILRHSMDPPTFTFNFNNEPWVRGRHETYLCYEVERMHNDTWVLLNQRRGFLCNQAPHKHGFLEGRHAELCFLDVIPFWKLDLDQDYRVTCFTSWSPCFSCAQEMAKFISKNKHVSLCIFTARIYDDQGRCQEGLRTLAEAGAKISIMTYSEFKHCWDTFVDHQGCPFQPWDGLDEHSQDLSGRLRAILQNQEN
For the molecule B2, the binding result in assay [2] and in assay [3] was “binds” in each case.

B3: untagged wild type APOBEC3G (A3G), Q9HC16 1-384 (natural protein)
chain: MKPHFRNTVERMYRDTFSYNFYNRPILSRRNTVWLCYEVKTKGPSRPPLDAKIFRGQVYSELKYHPEMRFFHWFSKWRKLHRDQEYEVTWYISWSPCTKCTRDMATFLAEDPKVTLTIFVARLYYFWDPDYQEALRSLCQKRDGPRATMKIMNYDEFQHCWSKFVYSQRELFEPWNNLPKYYILLHIMLGEILRHSMDPPTFTFNFNNEPWVRGRHETYLCYEVERMHNDTWVLLNQRRGFLCNQAPHKHGFLEGRHAELCFLDVIPFWKLDLDQDYRVTCFTSWSPCFSCAQEMAKFISKNKHVSLCIFTARIYDDQGRCQEGLRTLAEAGAKISIMTYSEFKHCWDTFVDHQGCPFQPWDGLDEHSQDLSGRLRAILQNQEN
In the case of B3, the binding result in assay [4] and in assay [3] was “binds” in each case.
